About 120 (0.25%) of roughly 48,000 compounds were called active. About 4% were inconclusive and are not listed. Calls come from the whole dose curve; as a rule, active = well fitted activation curve with a large enough effect; inconclusive = small, poorly fitted or top-dose-only effect, or another doubt; inactive = no such curve, though single readings can be large or run the other way. Only a part is listed here, and it is no random draw. Entries without a call were filed so in the source.

A short description of this test: Primary qHTS for Identification of Small Molecule Activators of Huntingtin-Antisense Promoter Activity. Note: nearly all actives have a fitted effect of over 55% in size. The conditions noted are these: HEK293 HTT-AS promoter firefly luciferase reporter, 24 h; activity change, positive = activation: at 57.5 µM (top of the series), percent change from vehicle, -100% = no light. In outline:
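Luminescence was read after Dual-Glo reagent and a 10 min room-temperature incubation. Values were normalized to vehicle (0% activity) and zero RLU (-100% activity). Reporter HEK293 cells had been exposed to compounds (up to 57.5 uM final) for 24 h.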
For the compound `Cc1c(CC(=O)NCc2ccccc2)c(=O)oc2c(C)c(O)ccc12`, the activity change, positive = activation was -11.6%. As for `COc1ccc(NC(=O)c2c(NCc3ccc(C)o3)sc3c2CCCCC3)c(OC)c1`, the “activity change, positive = activation” value is inactive: -26.5%. Take `CCOc1ccc(C2C(=O)N(C3CCCCCC3)CC(=O)N2Cc2ccc(C)cc2)cc1OC` (configuration not stated): the activity change, positive = activation is -18.2%. Take `Cc1cccc(CSCCNC(=O)C2CCN(S(=O)(=O)Cc3ccccc3)CC2)c1`: the activity change, positive = activation is -1.99%. Turning to `COc1ccc2c(C)c(CCC(=O)NCc3cccc(Cl)c3)c(=O)oc2c1`, the activity change, positive = activation is -1.1%. Take `COc1ccc2c(C)c(CCC(=O)NCCc3ccccc3)c(=O)oc2c1`: the activity change, positive = activation is -18.9%. Turning to `CC(C)NCC(O)c1ccc(O)c(O)c1` (configuration not stated), the Potency entry is “inactive”. In the case of `CCOc1cc(Br)cc(C2NC(=O)c3c(sc4c3CCN(C)C4)N2)c1O` (configuration not stated), the activity change, positive = activation came to 15.1%.

Consider `Brc1cccc(-c2cnn3c(-c4ccccc4)cc(-c4ccccc4)nc23)c1`, for which the activity change, positive = activation was -4.86%. As for `COc1cccc(C(=O)NCC(c2ccc3c(c2)OCO3)N2CCOCC2)c1` (configuration not stated), the “activity change, positive = activation” value is inactive: -14.3%.

With `Cc1ccc(-c2nc3ncccc3o2)cc1NC(=O)c1ccc(-c2ccc(Cl)cc2)o1`, the activity change, positive = activation was -6.91%.

Turning to `Cc1oc2ccc(O)c(CN3CCOCC3)c2c1C(=O)Nc1ccccc1`, the activity change, positive = activation stood at 0.947%. As for `O=S(=O)(Nc1cccc(-c2ccc(N3CCCCC3)nn2)c1)c1cccs1`, the activity change, positive = activation was found to be 39.4%. Regarding `CC(C)(C)c1ccc(C2Sc3ccccc3NC3=C2C(=O)c2ccccc23)cc1` (configuration not stated), the activity change, positive = activation is -81.3%. Consider `COc1ccc(Br)cc1CNC(=O)c1cc2ccccn2n1`, for which the activity change, positive = activation turned out to be 4.07%.

With `CCc1nn(CC(=O)NC(C)CCc2ccccc2)c(=O)c2cc3cc(F)ccc3n12` (configuration not stated), the activity change, positive = activation was found to be 0.379%. Consider `CCn1cc(C(=O)NCCCOC(C)C)c(=O)c2cc(S(=O)(=O)N3CCc4ccccc4C3)ccc21`, for which the “activity change, positive = activation” value was inactive: -20.1%. As to `O=C(Nc1ccc(Br)cc1)C1CCCN(S(=O)(=O)c2ccc(Br)s2)C1` (configuration not stated), the “activity change, positive = activation” value is inactive: -25.5%.

For `Cc1c2cnn(CC(=O)N3CCN(c4ccccc4)CC3)c(=O)c2c(C)n1Cc1ccc(F)cc1`, the “activity change, positive = activation” value was inactive: -16.9%. Same read-out and setting: in the case of `O=C1CC(c2ccccc2)Cc2[nH]c(=O)c(C(=O)Nc3ccc(OC(F)(F)F)cc3)cc21` (configuration not stated) it was inactive: -3.42%. In the case of `C=C(C)Cn1c(SCC(=O)c2ccc(OC)cc2)nc2sc3c(c2c1=O)CCCC3`, the activity change, positive = activation was 7.84%. `Cc1cc(C)c(S(=O)(=O)Nc2ccc3oc4c(c3c2)C(=O)CC(C)(C)C4)cc1C`: the activity change, positive = activation is inactive: 0.0132% [at 11.5 µM, percent change from vehicle, -100% = no light]. The same measure, in the same setting: in the case of `CCCOc1ccc(C2C(=O)N(C3CCCCCC3)CC(=O)N2CCC2=CCCCC2)cc1OC` (configuration not stated) it was -9.61%; in that of `COc1ccc(C2CC(=O)N(CC(=O)Nc3ccc(C)c(Cl)c3)c3ccccc3S2)cc1OC` (configuration not stated), inactive: -20.7%. For `Cc1oc2c(cc(NS(=O)(=O)c3ccc(Cl)cc3)c3ccccc32)c1C(=O)OCc1ccccc1`, the activity change, positive = activation was -5.08%. Still for that read-out and setting: the figure for `COc1ccc2c(c1)CCc1c(C(=O)Nc3ccc(C#N)cc3)noc1-2` is 0.4%. For the compound `Cc1ccc(OCCOCCn2c(-c3ccc(Cl)cc3)nc3ccccc3c2=O)cc1`, the activity change, positive = activation is 6.35%. On to `COc1ccc2c(C)c(CC(=O)NCCc3ccccc3)c(=O)oc2c1OC`, for which the activity change, positive = activation is -4.36%. In the case of `Cc1cc(S(=O)(=O)Nc2cccc(-c3ccc(N4CCOCC4)nn3)c2)c(C)cc1Cl`, the activity change, positive = activation was -1.49%. Consider `COc1ccc(OC)c(CCNC(=O)C(C)n2nc(C)c3c(C)n(-c4ccc(C)cc4)nc3c2=O)c1` (configuration not stated), for which the “activity change, positive = activation” value is inactive: -88.4%.

On to `O=C(CSc1nc(-c2cccc(Cl)c2)nc2cc(=O)[nH]n12)Nc1ccccc1`, for which the activity change, positive = activation was -13.8%. For the compound `COc1cccc(NC(=O)CSc2nnc(COc3ccc(Cl)cc3)o2)c1`, the activity change, positive = activation was -5.22%. On the same count and under the same terms, the figure for `CCOc1ccccc1NC(=O)c1sc2nc(C)cc(C)c2c1N` is inactive: 3.7%; for `O=S(=O)(Nc1cccc(-c2ccc(N3CCCCCC3)nn2)c1)c1ccc(F)cc1` it is 42.7%.

For the compound `Cc1cc(C)c(-c2n[nH]c3c2C(c2ccccc2F)N(Cc2ccco2)C3=O)c(O)c1` (configuration not stated), the “activity change, positive = activation” value was inactive: -32.9%. Take `CCOC(=O)C1CCN(C(=O)Cn2nc(CC)n3c(cc4sccc43)c2=O)CC1`: the “activity change, positive = activation” value was inactive: -78.2%. Take `Cc1nn2c(=O)cc(COC(=O)c3cccc(NC(=O)COc4ccccc4C)c3)nc2s1`: the “activity change, positive = activation” value was inactive: -89.6%.

For `CCN(CC)C(=O)c1ccc2c(c1)N(Cc1ccc(C(F)(F)F)cc1)C(=O)c1ccccc1S2`, the “activity change, positive = activation” value is inactive: -21%. Same read-out and setting: the figure for `COc1ccc(-c2cc(C(=O)Nc3sc4c(c3C(N)=O)CCCC4)no2)cc1` is 17.5%; for `COc1ccc(Cl)cc1NC(=O)c1cc(-c2ccc3c(c2)OCO3)on1` it is 5.23%; for `Cc1oc2ccc(O)c(CN3CCOCC3)c2c1C(=O)Nc1cccc(C(F)(F)F)c1` it is -28.2%.

Consider `Cc1[nH]c(C=C2C(=O)Nc3ccc(S(=O)(=O)Cc4c(Cl)cccc4Cl)cc32)c(C)c1C(=O)N1CCC[C@H]1CN1CCCC1`, for which the “activity change, positive = activation” value was inactive: -4.46%.

As for `O=C(Nc1ccccc1C(F)(F)F)C1CCN(S(=O)(=O)Cc2ccccc2)CC1`, the activity change, positive = activation was determined as 2.69%. Regarding `Cc1nc(NC(=O)N2CCC[C@@H]2C(N)=O)sc1-c1csc(C(C)(C)C)n1`, the “activity change, positive = activation” value was inactive: 10.2%.

As to `COc1cc(NC(=O)CC2C(=O)N(c3cccc(C)c3)C(=O)N2Cc2ccco2)cc(OC)c1` (configuration not stated), the activity change, positive = activation was -21.1%. `COC(=O)CN1C(=O)CSc2ccc(S(=O)(=O)Nc3ccc(Cl)cc3C)cc21`: the activity change, positive = activation is -8.19%. In the case of `Cc1ccc2ccc(C(Nc3ccccn3)c3ccccc3)c(O)c2n1` (configuration not stated), the activity change, positive = activation was -7.27%.

(Values after PubChem BioAssay AID1508624 (National Center for Advancing Translational Sciences (NCATS), 2021).)
